Data reported in the supplement of paper PMC8728848.
This is one part of the list.

Legend:
Assay in all cases: glycan array binding signal (z-score within array); higher = stronger binding
Settings in all cases: glycan notation: IUPAC condensed, linker removed
Fuc(a1-3)GlcNAc = molecular target: Fuc(a1-3)GlcNAc
In short: (§1)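 Arrays were curated from the Consortium for Functional Glycomics database, 3228 in total, and kept only where the protein sequence was available. Binding is expressed as a within-array Z-score. This score was averaged across arrays of the same protein sequence at different concentrations or buffers and across linkers, and negative values can be read as non-binding.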

[1] = molecular target: Fuc(a1-3)[Gal(b1-4)]Glc6S
In short: as §1

[2] = molecular target: Fuc(a1-3)[Gal(b1-4)]GlcNAc
In short: as §1

[3] = molecular target: Fuc(a1-3)[Gal(b1-4)]GlcNAc(b1-2)Man
In short: as §1

[4] = molecular target: Fuc(a1-3)[Gal(b1-4)]GlcNAc(b1-2)Man(a1-3)[Fuc(a1-3)[Gal(b1-4)]GlcNAc(b1-2)Man(a1-6)]Man(b1-4)GlcNAc(b1-4)GlcNAc
In short: as §1

[5] = molecular target: Fuc(a1-3)[Gal(b1-4)]GlcNAc(b1-2)Man(a1-3)[Fuc(a1-3)[Gal(b1-4)]GlcNAc(b1-2)Man(a1-6)]Man(b1-4)GlcNAc(b1-4)[Fuc(a1-6)]GlcNAc
In short: as §1

[6] = molecular target: Fuc(a1-3)[Gal(b1-4)]GlcNAc(b1-3)Gal(b1-3)[Fuc(a1-4)]GlcNAc
In short: as §1

[7] = molecular target: Fuc(a1-3)[Gal(b1-4)]GlcNAc(b1-3)Gal(b1-4)[Fuc(a1-3)]GlcNAc
In short: as §1

[8] = molecular target: Fuc(a1-3)[Gal(b1-4)]GlcNAc(b1-3)Gal(b1-4)[Fuc(a1-3)]GlcNAc(b1-3)Gal(b1-4)[Fuc(a1-3)]GlcNAc
In short: as §1

[9] = molecular target: Fuc(a1-3)[Gal(b1-4)]GlcNAc(b1-3)GalNAc
In short: as §1

[10] = molecular target: Fuc(a1-3)[Gal(b1-4)]GlcNAc(b1-6)GalNAc
In short: as §1

[11] = molecular target: Fuc(a1-3)[Gal(b1-4)]GlcNAc(b1-6)[Gal(b1-3)GlcNAc(b1-3)]Gal(b1-4)Glc
In short: as §1

[12] = molecular target: Fuc(a1-3)[Gal(b1-4)]GlcNAc6S
In short: as §1

[13] = molecular target: Fuc(a1-3)[Gal3S(b1-4)]Glc
In short: as §1

[14] = molecular target: Fuc(a1-3)[Gal3S(b1-4)]GlcNAc
In short: as §1

[15] = molecular target: Fuc(a1-3)[Gal3S(b1-4)]GlcNAc6S
In short: as §1

[16] = molecular target: Fuc(a1-3)[GalNAc(b1-4)]GlcNAc
In short: as §1

[17] = molecular target: Fuc(a1-3)[GalNAc(b1-4)]GlcNAc6S
In short: as §1

Fuc(a1-4)GlcNAc = molecular target: Fuc(a1-4)GlcNAc
In short: as §1

Fuc(b1-3)GlcNAc = molecular target: Fuc(b1-3)GlcNAc
In short: as §1

Gal(a1-2)Gal = molecular target: Gal(a1-2)Gal
In short: as §1

Gal(a1-3)Gal = molecular target: Gal(a1-3)Gal
In short: as §1

Gal(a1-3)Gal(b1-3)GlcNAc = molecular target: Gal(a1-3)Gal(b1-3)GlcNAc
In short: as §1

[18] = molecular target: Gal(a1-3)Gal(b1-3)GlcNAc(b1-2)Man
In short: as §1

[19] = molecular target: Gal(a1-3)Gal(b1-3)GlcNAc(b1-2)Man(a1-3)[Gal(a1-3)Gal(b1-3)GlcNAc(b1-2)Man(a1-6)]Man(b1-4)GlcNAc(b1-4)GlcNAc
In short: as §1

[20] = molecular target: Gal(a1-3)Gal(b1-3)GlcNAc(b1-3)GalNAc
In short: as §1

[21] = molecular target: Gal(a1-3)Gal(b1-3)GlcNAc(b1-6)GalNAc
In short: as §1

[22] = molecular target: Gal(a1-3)Gal(b1-3)[Fuc(a1-4)]GlcNAc(b1-2)Man(a1-3)[Gal(a1-3)Gal(b1-3)[Fuc(a1-4)]GlcNAc(b1-2)Man(a1-6)]Man(b1-4)GlcNAc(b1-4)GlcNAc
In short: as §1

Gal(a1-3)Gal(b1-4)Glc = molecular target: Gal(a1-3)Gal(b1-4)Glc
In short: as §1

Gal(a1-3)Gal(b1-4)GlcNAc = molecular target: Gal(a1-3)Gal(b1-4)GlcNAc
In short: as §1

[23] = molecular target: Gal(a1-3)Gal(b1-4)GlcNAc(b1-2)Man
In short: as §1

[24] = molecular target: Gal(a1-3)Gal(b1-4)GlcNAc(b1-2)Man(a1-3)[Gal(a1-3)Gal(b1-4)GlcNAc(b1-2)Man(a1-6)]Man(b1-4)GlcNAc(b1-4)GlcNAc
In short: as §1

[25] = molecular target: Gal(a1-3)Gal(b1-4)GlcNAc(b1-3)GalNAc
In short: as §1

[26] = molecular target: Gal(a1-3)Gal(b1-4)GlcNAc(b1-6)GalNAc
In short: as §1

[27] = molecular target: Gal(a1-3)Gal(b1-4)[Fuc(a1-3)]GlcNAc
In short: as §1

[28] = molecular target: Gal(a1-3)Gal(b1-4)[Fuc(a1-3)]GlcNAc(b1-2)Man(a1-3)[Gal(a1-3)Gal(b1-4)[Fuc(a1-3)]GlcNAc(b1-2)Man(a1-6)]Man(b1-4)GlcNAc(b1-4)GlcNAc
In short: as §1

Gal(a1-3)GalNAc = molecular target: Gal(a1-3)GalNAc
In short: as §1

[29] = molecular target: Gal(a1-3)[Gal(a1-4)]Gal(b1-4)GlcNAc
In short: as §1

[30] = molecular target: Gal(a1-4)Gal(b1-3)GlcNAc(b1-2)Man(a1-3)[Gal(a1-4)Gal(b1-3)GlcNAc(b1-2)Man(a1-6)]Man(b1-4)GlcNAc(b1-4)GlcNAc
In short: as §1

Gal(a1-4)Gal(b1-4)Glc = molecular target: Gal(a1-4)Gal(b1-4)Glc
In short: as §1

Gal(a1-4)Gal(b1-4)GlcNAc = molecular target: Gal(a1-4)Gal(b1-4)GlcNAc
In short: as §1

[31] = molecular target: Gal(a1-4)Gal(b1-4)GlcNAc(b1-2)Man(a1-3)[Gal(a1-4)Gal(b1-4)GlcNAc(b1-2)Man(a1-6)]Man(b1-4)GlcNAc(b1-4)GlcNAc
In short: as §1

[32] = molecular target: Gal(a1-4)Gal(b1-4)GlcNAc(b1-3)Gal(b1-4)Glc
In short: as §1

Gal(a1-4)GlcNAc = molecular target: Gal(a1-4)GlcNAc
In short: as §1

Gal(a1-6)Glc = molecular target: Gal(a1-6)Glc
In short: as §1

B1: rCnSL-A (Clitocybe nebularis) (protein)
chain: VNPNLPGPNDVFVGFRGTNNIVGAIYEKDGIKDTPLNNGADAEMGPGSYITDGLFTARIFASGSAGNNPGTTATVCKIYASGVQWRGAPKGYIPVAYFGNGPTAEQRRQTYLRTLGLPGTAIRFGNLNTNPGQGPTAPRQMVVPPGPLRSLLKASCFPAADTRLPQTLHYFEKRVDWNIITAADSQTWGH
Fuc(a1-3)GlcNAc
  glycan array binding signal (z-score): -0.258
[1]
  glycan array binding signal (z-score): -0.019
[2]
  glycan array binding signal (z-score): -0.312
[3]
  glycan array binding signal (z-score): -0.213
[4]
  glycan array binding signal (z-score): -0.253
[5]
  glycan array binding signal (z-score): -0.184
[6]
  glycan array binding signal (z-score): -0.109
[7]
  glycan array binding signal (z-score): -0.069
[8]
  glycan array binding signal (z-score): 0.066
[9]
  glycan array binding signal (z-score): -0.232
[10]
  glycan array binding signal (z-score): -0.093
[11]
  glycan array binding signal (z-score): -0.004
[12]
  glycan array binding signal (z-score): -0.193
[13]
  glycan array binding signal (z-score): -0.148
[14]
  glycan array binding signal (z-score): -0.216
[15]
  glycan array binding signal (z-score): -0.253
[16]
  glycan array binding signal (z-score): -0.143
[17]
  glycan array binding signal (z-score): -0.255
Fuc(a1-4)GlcNAc
  glycan array binding signal (z-score): -0.178
Fuc(b1-3)GlcNAc
  glycan array binding signal (z-score): -0.225
Gal(a1-2)Gal
  glycan array binding signal (z-score): -0.273
Gal(a1-3)Gal
  glycan array binding signal (z-score): -0.219
Gal(a1-3)Gal(b1-3)GlcNAc
  glycan array binding signal (z-score): -0.216
[18]
  glycan array binding signal (z-score): -0.158
[19]
  glycan array binding signal (z-score): 0.038
[20]
  glycan array binding signal (z-score): -0.204
[21]
  glycan array binding signal (z-score): -0.247
[22]
  glycan array binding signal (z-score): -0.251
Gal(a1-3)Gal(b1-4)Glc
  glycan array binding signal (z-score): -0.211
Gal(a1-3)Gal(b1-4)GlcNAc
  glycan array binding signal (z-score): -0.243
[23]
  glycan array binding signal (z-score): -0.224
[24]
  glycan array binding signal (z-score): 0.104
[25]
  glycan array binding signal (z-score): -0.243
[26]
  glycan array binding signal (z-score): -0.26
[27]
  glycan array binding signal (z-score): -0.22
[28]
  glycan array binding signal (z-score): 0.487
Gal(a1-3)GalNAc
  glycan array binding signal (z-score): -0.086
[29]
  glycan array binding signal (z-score): -0.24
[30]
  glycan array binding signal (z-score): -0.141
Gal(a1-4)Gal(b1-4)Glc
  glycan array binding signal (z-score): -0.211
Gal(a1-4)Gal(b1-4)GlcNAc
  glycan array binding signal (z-score): -0.322
[31]
  glycan array binding signal (z-score): 0.459
[32]
  glycan array binding signal (z-score): -0.286
Gal(a1-4)GlcNAc
  glycan array binding signal (z-score): -0.272
Gal(a1-6)Glc
  glycan array binding signal (z-score): -0.218
